Measured values from PubChem BioAssay AID1963576 (National Center for Advancing Translational Sciences (NCATS), 2024).
Out of some 46,000 compounds screened, about 60 (0.1%) were called active. Another 3% or so got no clear call; they are omitted. Calls come from the whole dose curve; as a rule, active = well fitted inhibition curve with a large enough effect; inconclusive = small, poorly fitted or top-dose-only effect; inactive = no such curve, though single readings can be large or run the other way. This is one part of the list.

assay: Primary qHTS assay for Inhibitors of ovarian cancer metastasis using an organotypic tumor microenvironment (TME) model.; note: nearly all actives have a fitted effect of over 65% in size;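 for activity change, negative = inhibition: plate controls were DMSO wells for no effect and tomatine positive control wells for full effect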; conditions: SKOV3ip1-GFP adhesion/invasion on 3D omental model, fluorescence; series mostly up to 45.8 µM; activity change, negative = inhibition: at the top concentration
Summary of the method: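 A 3D layer of primary human omental fibroblasts, mesothelial cells, fibronectin and collagen I, grown 48 hr, received SKOV3ip1-GFP cells in serum-free medium plus compounds at 0.36-46 umol/L. After 2 hr RT and 16 hr 37 C, fixed adherent GFP cells were counted; normalized to DMSO and tomatine.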

Activity change, negative = inhibition, inactive:
CCN(CC)S(=O)(=O)c1ccc2c(c1)N(CC(=O)Nc1cccc(C(C)=O)c1)C(=O)CO2 9.81%, O=C(Nc1ccc(Br)cc1)Nc1nc2c(s1)CCCCCC2 -3.78%, CCOc1ccc(Br)cc1C1C(C(=O)Nc2ccccc2OC)=C(C)Nc2nnnn21 (stereo unspecified) -9.61%, CCc1ccc2oc(-c3cccc(NC(=O)c4ccc(-c5cccc([N+](=O)[O-])c5)o4)c3)nc2c1 44.4%, Cc1cccc(OC(C)C(=O)N2CCC(c3nc4ccccc4o3)CC2)c1C (stereo unspecified) -4.23%, CCN1C(C(=O)c2ccccc2)=C(OC(=O)c2ccc(Cl)cc2)c2ccccc2S1(=O)=O -19.4%, CCc1nnc2c3ccccc3nc(Nc3ccc(F)cc3C)n12 -3.5%, CC1CCc2c(sc3nnn(CC(=O)Nc4cccc(C(F)(F)F)c4)c(=O)c23)C1 (stereo unspecified) -10.4%, CCOc1ccc(NCc2cccn2-c2nnc(N3CCC(C(=O)NC(C)c4ccccc4)CC3)s2)cc1 (stereo unspecified) -5.03%, COc1cccc(CN2c3ccccc3-c3nc(SCC(=O)Nc4cccc(C)c4)ncc3S2(=O)=O)c1 -4.59%, COc1ccc(-n2c(=O)c3c4c(sc3n(Cc3ccccc3)c2=O)CCC4)c(OC)c1 -3.07%, CCOc1cccc(NC(=O)CSc2ncc(-c3ccc(Cl)cc3)[nH]2)c1 3.8%, CCn1c(=O)c(=O)n(CC)c2cc(N3CCCCC3)c(NC(=O)c3cccc(OC)c3)cc21 -1.74%, COc1ccc(N2CCN(CC(O)COc3ccc(C)c(C)c3)CC2)cc1 (stereo unspecified) -17.3%, CC(=O)N1c2ccc(S(=O)(=O)NCCc3cccc(C)c3)cc2CC1C (stereo unspecified) -0.471%, CCN(C(=O)c1cc(S(=O)(=O)N2CCCCC2)c[nH]1)c1ccc(OC)cc1 -10.3%, Cc1ccc(NC(=O)CC2Sc3ccccc3NC2=O)c(C)c1 (stereo unspecified) -3.13%, CN(N=O)C(=O)N[C@H]1C(O)OC(CO)[C@@H](O)[C@H]1O (stereo partly specified) -28.4%, C=Cc1ccc(CSc2nc(-c3ccc(Cl)cc3)nc3c2Cc2c(CO)cnc(C)c2O3)cc1 -13.5%, CCOc1ccc(-n2c(-c3ccc(OC)cc3)cc3c2CC(C)(C)CC3=O)cc1 -4.63%, N=c1n(CCO)c2ccccc2n1CCOc1ccc(F)cc1 2.91%, Cc1ccc(C)c(Cn2cc(CCC(=O)NC3CCCCC3)c3ccccc32)c1 13.9%, COc1cc(Cl)c(C)cc1NC(=O)CSCc1nc(-c2ccc(OC)c(OC)c2)no1 2.79%, Cn1c(NCc2ccccc2F)nc2ccccc21 3.87%, COc1ccc(CNC(=O)c2cnn(-c3ccc(C)cc3)c2C2CCN(C(=O)OC(C)(C)C)CC2)cc1 4.62%, CCOc1ccccc1C(=O)N1CCc2cc(OC)c(OC)cc2C1COc1ccc2c(C)cc(=O)oc2c1 (stereo unspecified) -15%, Cc1ccc(-n2ncc3c(Nc4ccc5c(c4)OCCO5)ncnc32)cc1C 3.19%, CC(=O)c1cccc(-n2c(CCC(=O)O)ccc2-c2ccccc2)c1 -2.82%, Cc1ccc(NC(=O)Cn2ccn(Cc3ccc(Cl)cc3)c(=O)c2=O)cc1C -2.89%, CCOC(=O)C1CCN(C(=O)c2ccc3c(c2)sc2nc(-c4ccc(OCC)cc4)cn23)CC1 -7%, O=C(CSc1ncc(S(=O)(=O)c2ccc(Br)cc2)c(=O)[nH]1)NCc1ccccc1Cl 18.7%, CCN1CCN(C(c2ccc(Cl)cc2)c2c(O)cc(C)n(CCOC)c2=O)CC1 (stereo unspecified) -5.89%, COc1ccc(/C=C(\NC(=O)c2ccccc2)C(=O)NC2CCCCC2)cc1 -3.7%, Cc1ccc(OCCSc2nc3ccccc3n2CCC(=O)O)cc1C -9.52%, CCCCn1cnc2cc(NC(=O)c3cc(OC)c(OC)c(OC)c3)ccc21 12.5%, Cc1cc(C)cc(N(CC(=O)Nc2ccc(C(F)(F)F)cc2)S(=O)(=O)c2c(C)[nH]c(=O)[nH]c2=O)c1 1.4%, COc1ccc(-c2cc(C(=O)Oc3ccc(Cl)cc3)c3ccccc3n2)cc1 -3.66%, CCOc1ccccc1NC(=O)Cn1c(=O)n(Cc2ccco2)c(=O)c2cccnc21 -1.83%, CCc1ccccc1NC(=O)C1=CC(c2ccc3c(c2)OCO3)=NS(=O)(=O)N1C 4.96%, COc1ccccc1C(=O)CC1(O)C(=O)N(CC(N)=O)c2ccccc21 (stereo unspecified) 1.22%, CC(C)c1ccc(S(=O)(=O)Nc2cc3c(cc2NCc2ccccc2)n(C)c(=O)n3C)cc1 -3.03%, CCCC(=O)Nc1c(C(=O)N2CCN(c3ccccc3)CC2)oc2ccccc12 -18.2%, CCC(=O)N1CCc2cc(S(=O)(=O)NC(Cc3ccccc3)C(=O)Nc3ccc(Cl)cc3)ccc21 (stereo unspecified) -12.8%, COc1ccccc1C(=O)N1CCC(c2c[nH]c3ccccc23)(c2c[nH]c3ccccc23)CC1 6.56%, O=C(CN1C(=O)COc2ccc(S(=O)(=O)N3CCCCCC3)cc21)N1CCN(c2cccc(Cl)c2)CC1 -1.6%, O=C(C1COc2cc(S(=O)(=O)Nc3ccc(Cl)cc3)ccc2O1)N1CCCC1 (stereo unspecified) 1.18%, Fc1ccc(-c2nnc(CN3CCN(c4ccccn4)CC3)o2)cc1 -3.77%

outcome, inactive:
O=C1C(=O)N(C2CCN(C(=O)c3ccc(F)cc3)CC2)CCN1Cc1ccc(F)cc1, COc1ccc(-c2cc(C(F)(F)F)nc(NCc3ccccc3)n2)cc1OC, CCOC(=O)c1cccc(NC(=O)N2Cc3ccccc3Oc3ncccc32)c1, Cc1oc(-c2ccc(C(=O)N(C)Cc3ccccc3)cc2)nc1CN1CCc2ccccc21, CCOC(=O)c1ccc(-c2ccc(/C=C(\C#N)C(=O)Nc3cccc(C)c3)o2)cc1, Cc1cc(C)cc(OCCOCCn2c(-c3ccc(Cl)cc3)nc3ccccc3c2=O)c1, Cc1cccc(C)c1NC(=O)C1CCN(S(=O)(=O)c2cccc3nsnc23)CC1, COc1ccc(OC)c(Nc2cc(C(=O)NCc3ccccc3)c3ccccc3n2)c1, COc1ccc(-c2nc(SCC(=O)NC3CCCC3)c(-c3ccccc3)[nH]2)cc1OC, Cc1nc2ncnn2c(C)c1CCC(=O)NCc1ccc(Cl)cc1, CCOc1ccc(NC(=O)NC(CC)Cn2nnc3ccccc3c2=O)cc1 (stereo unspecified), COc1ccc(CCNC(=O)c2cc3cccc4c3n2CC(C)S4)c(OC)c1OC (stereo unspecified), O=C(CSc1nc(-c2ccccc2)[nH]c1-c1ccc(F)cc1)NC1CCCC1, CC(C)(C)OC(=O)N1CCC(c2c(C(=O)O)cnn2-c2ccc(F)cc2F)CC1
